PubChem BioAssay AID1508624 (National Center for Advancing Translational Sciences (NCATS), 2021)
Among all 48,000 compounds or so, about 120 (0.25%) were called active. Roughly 4% stayed inconclusive and do not appear here. The call rests on the fitted dose curve; in most records, active means well fitted activation curve with a large enough effect; inconclusive means small, poorly fitted or top-dose-only effect, or another doubt; inactive means no such curve, though single readings can be large or run the other way. Some of the results follow.

Experiment: Primary qHTS for Identification of Small Molecule Activators of Huntingtin-Antisense Promoter Activity; further: nearly all actives have a fitted effect of over 55% in size
Details: HEK293 HTT-AS promoter firefly luciferase reporter, 24 h; series mostly up to 57.5 µM; activity change, positive = activation: at the top concentration
Method in brief: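 Firefly luciferase signal from promoter-reporter HEK293 cells was scaled between vehicle (0%) and zero RLU (-100%). Compounds were tested at final concentrations of up to 57.5 uM over 24 h at 37 degrees C. PTC124 at 50 uM final served as control inhibitor.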

Activity change, positive = activation, inactive:
CCOC(=O)c1ccc(N2C(=O)c3n[nH]c(-c4ccco4)c3C2c2ccccc2OC)cc1 (stereo not given) -63.5%
COc1ccc(N(C)S(=O)(=O)c2ccc3c(c2)CCN3C(=O)CCC(=O)O)cc1 -23.5%
Cc1ccc(NC(=O)Cn2c(=O)n(Cc3ccccc3)c(=O)c3c(C)c(C(=O)N(C)C)sc32)c(C)c1 -15.1%
COc1ccc(NC(=O)c2ccco2)cc1NC(=O)c1ccccc1[N+](=O)[O-] -5.83%
CCN1CCN(C(=O)N[C@@H](C(=O)N[C@@H]2C(=O)N3C(C(=O)O)=C(CSc4nnnn4C)CS[C@H]23)c2ccc(O)cc2)C(=O)C1=O -1.97%
CC(C)(Cc1ccc2ccccc2c1)NC[C@@H](O)COc1cccc(Cl)c1C#N 4.26%
O=C1Nc2ccc(I)cc2C1=Cc1cc(Br)c(O)c(Br)c1 1.03%
CCc1cccc(C)c1Nc1nn2c(=O)c3ccccc3nc2s1 -4.66%
COc1cc(C2C=C(C(=O)O)Nc3ncnn32)ccc1O (stereo not given) 2.6%
CCOc1ccc2c(c1)c(=O)c(C(=O)c1ccc(CC)cc1)cn2CC(=O)Nc1ccc2c(c1)OCCO2 -7.77%
COc1cccc(NC(=O)Cn2c(=O)n(CCC(=O)NCc3ccccc3OC)c(=O)c3ccccc32)c1 -12.2%
COc1ccc(Cl)cc1NC(=O)Cn1c(=O)n2nc(-c3ccccc3)nc2c2ccccc21 -15.9%
COc1ccc(C)c2sc(N(Cc3cccnc3)C(=O)c3cccs3)nc12 -22.2%
Cc1ccc(NC(=O)Cn2cc3c(n2)CCCC3)cc1Cl -9.88%
CCN1CCc2c(sc(-n3cccc3)c2C(C)NC(=O)Nc2ccc(C(=O)OC)cc2)C1 (stereo not given) -4.28%
COc1ccc(CNS(=O)(=O)c2ccc(-c3cc(C(F)(F)F)on3)s2)cc1OC -63.7%
COc1ccc(CNC(=O)c2nn(C)c3c2CSc2ccccc2-3)cc1 -4.43%
COc1ccc(-c2csc(-c3c(N)c(C(=O)c4ccc(OC)c(OC)c4)n4ccccc34)n2)cc1 7.61%
O=C(Nc1cccc(F)c1)c1cnc2sc(N3CCCC3)nn2c1=O -21.1%
COc1cccc(NS(=O)(=O)c2ccc3[nH]cc(C(=O)NC(C)c4ccccc4)c(=O)c3c2)c1 (stereo not given) -26.2%
CCOC(=O)C1CCN(Cc2cn3c(-c4ccc(OC)cc4)nnc3s2)CC1 -17.6%
Cc1cccc(NC(=O)c2cn(-c3ccccc3)nc2-c2ccccc2)c1C -45.6%
Cc1ccccc1CN1CCCN(CC(=O)Nc2ccc(F)cc2)S1(=O)=O -20.3%
Cc1cc(Nc2ncnc3ccc(-c4ccc(CNCCS(C)(=O)=O)o4)cc23)ccc1Oc1ccn2ncnc2c1 -43.8%
Cc1ccc(NC(=O)Cn2c(=O)n(Cc3ccc4c(c3)OCO4)c(=O)c3oc4ccccc4c32)cc1C -15%
CCOC(=O)c1c(C)oc2nc(C)nc(NCCc3ccc(Cl)cc3)c12 -18.9%
CC(C)c1ccc(NC(=O)Cn2nnc(C(=O)NCc3ccc4c(c3)OCO4)c2N)cc1 1.15%
CO[C@@]12[C@H](COC(N)=O)C3=C(C(=O)C(C)=C(N)C3=O)N1C[C@@H]1N[C@@H]12
Cc1ccc(/C=C/C(=O)Nc2ccc3nc(N4CCC(C)CC4)cc(C)c3c2)cc1 -8.43%
Cc1cc(N2CCC(C(=O)Nc3ccc(F)cc3F)CC2)n2nc(C)c(-c3ccc(Cl)cc3)c2n1 -4.9%
CCOc1ccc(C(=O)Nc2ccc3nc(N(CC)CC)cc(C)c3c2)cc1 -38.8%
Cn1c(=O)oc2cc(S(=O)(=O)NC(Cc3ccccc3)C(=O)Nc3ccc(F)c(Cl)c3)ccc21 (stereo not given) 8.18%
COc1cc(-c2cc(OC)c3c(C)oc(C)c3c(=O)c2)ccc1OC(=O)c1cccc(C)c1 -15.9%
Cc1nn(S(=O)(=O)c2ccc(F)cc2)c(C)c1S(=O)(=O)N1CCCCCC1 -11.6%
Cc1ccc(CNC(=O)c2ccc3c(c2)c(C)c(C)n3Cc2ccc(Cl)cc2)o1 -25.5%
CC(NN)c1ccccc1 (stereo not given) -6.13% [at 25.1 µM, percent change from vehicle, -100% = no light]
Cc1ccc(-c2noc(-c3ccc(N4CCCC4)c([N+](=O)[O-])c3)n2)cc1 -59.2%
CCCc1cc(=O)[nH]c(SCc2nc(-c3ccc(OCC)cc3)no2)n1 -12.8%
Cc1c(-c2ccccc2)c(=O)oc2c(CN3CCOCC3)c(O)ccc12 -1.82%
Cc1ccc(C2C=C(c3ccccc3)Nc3nc(NS(C)(=O)=O)nn32)cc1 (stereo not given) -6.37%
CCc1cccc(C)c1NC(=O)CSc1nc2ccncc2[nH]1 -25.9%
COc1ccc(NC(=O)C2CCN(c3cc(C)nc4c(-c5ccc(Cl)cc5)c(C)nn34)CC2)cc1 -11.3%
CCOc1ccc(C2C(C(=O)Nc3ccc(OC)cc3)=C(C)Nc3nc(CCCO)nn32)cc1 (stereo not given) -9.98%
COc1ccc(CCNS(=O)(=O)c2c(C)nc3sc(C)cn3c2=O)cc1OC -6.84%
Cc1cc(Nc2cccc(C(=O)O)c2)n2nc(C)nc2n1 -8.1%
CCCn1c2ccccc2c2cnn(CC(=O)NCCN(CC)CC)c(=O)c21 -10.7%
COc1ccc(CCNC(=O)c2ccc3c(c2)N=C(C)c2ccccc2S3)cc1OC -33.5%
COc1ccc(-c2nc3ccccc3o2)cc1NC(=O)c1cccnc1 8.55%
Cc1cccc(NC(=O)CN(C)S(=O)(=O)c2ccc3c(c2)c(=O)n(C)c(=O)n3C)c1C -0.33%
CCOc1c(Cl)cc(CNc2ccc3[nH]c(=O)[nH]c3c2)cc1OC -41.1%
CCN(CC)CCCNC(=O)c1ccc2c(c1)sc1nc(-c3ccc(C)cc3)cn12 -15.9%
COc1ccc(NC(=O)NC(C)c2c(-n3cccc3)sc(C)c2C)cc1OC (stereo not given) -31.2%
CCCCOc1ccc(C(=O)Nc2cc(-c3cn4cccnc4n3)ccc2OC)cc1 -11.9%
CCN(c1cccc(C)c1)S(=O)(=O)c1cc2c(cc1C)n(C)c(=O)c(=O)n2C -11.1%
CCOc1cccc2sc(NC(=O)c3ccc(S(=O)(=O)N4CCCCC4C)cc3)nc12 (stereo not given) -33.7%
O=C(c1cc(-c2ccc(Cl)cc2)n[nH]1)N1CCN(S(=O)(=O)c2ccc(Br)s2)CC1 -35.6%
CCOC(=O)c1c(C)[nH]c(C)c1S(=O)(=O)N1CCN(c2cc(Cl)ccc2C)CC1 -40.8%
Clc1ccccc1Cn1c(-c2cccs2)nc2ccccc21 -36.3%
CCOc1ccc(NC(=O)c2sc(-n3nc(C)c(Cc4ccc(Cl)cc4)c3C)nc2C)cc1 -8.82%
Cc1nnc(NC(=O)c2nc(SC(C)C)ncc2Cl)s1 20%
